Measurements reported in PubChem BioAssay AID624202 (National Center for Advancing Translational Sciences (NCATS), 2012).
The campaign covered roughly 380,000 compounds. About 4,000 (1.1%) were called active. The inconclusive results got no clear call from the source; some entries with a clear call stand among them for comparison. Calls follow the shape of the dose curve; as a rule, active = well fitted activation curve with a large enough effect; inconclusive = small, poorly fitted or top-dose-only effect; inactive = no such curve, though single readings can be large or run the other way. Potencies of inconclusive entries are doubtful fits and often do not repeat.

Experiment: qHTS Assay to Identify Small Molecule Activators of BRCA1 Expression; also: nearly all actives have a fitted effect of over 80% in size
Conditions: MCF7-BRCA1-FFLuc reporter, luminescence, 48 h; activation: at 46.1 µM (top of the series), scaled: vehicle 0%, 10 µM genistein 100% unless noted
Procedure, shortened: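 First, MCF7-BRCA1-FFLuc cells (2000/well) attach for 2 h; next, compounds are pin-added and incubated 48 h at 37 °C; finally, luciferase reagent is added and luminescence read after 15 min.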
Potency is read from the fitted curve at half-maximal effect; tags tell the direction and shape of the fitted curve.

Row | SMILES | activation | Potency
1 | Cc1ccc(NC(=O)CSc2nc3ccc(NC(=O)c4cccs4)cc3s2)c(C)c1 | inactive: 2.62% | 
2 | O=C(NNC(=O)c1ccccc1F)c1ccc2nc[nH]c2c1 |  | inconclusive: 15.8 µM [activator, single point]
3 | CC1CCC(C(C)C)C(OC(=O)C[n+]2cc(-c3ccc(Cl)cc3)n3c2CCCCC3)C1 (centres undefined) | inactive: -80.8% | 
4 | COC(=O)CN1C(=O)S/C(=C/c2cc(C)n(C)c2C)C1=O |  | active: 12.6 µM
5 | O=C(CC1CCCC1)Nc1ccc2c(c1)CCC2 |  | active: 10 µM
6 | O=Cc1cccn1Cc1ccc(Cl)cc1Cl | inactive: 2.29% | 
7 | C=CCOc1ccc(C(c2c(O)nc(SC)[nH]c2=O)c2c(O)nc(SC)[nH]c2=O)cc1 | inactive: 1.64% | 
8 | O=C(Nc1nnc(S(=O)(=O)N2CCOCC2)s1)c1cccc(F)c1 |  | inconclusive: 11.2 µM [activator, partial curve, poor fit]
9 | Cc1ccc2nc(SCC(=O)c3ccc(O)cc3O)[nH]c2c1 |  | inconclusive: 20 µM [activator, single point]
10 | O=C(Nc1ccccc1)Nc1nncs1 | inactive: 30.6% | 
11 | C=CCNc1nc(-c2cc3ccccc3o2)cs1 |  | inconclusive: 2 µM [activator, partial curve, poor fit]
12 | COc1cc(SC)ccc1C(=O)Nc1ncc(Cl)cc1Cl | inconclusive: 187% [activator] | 
13 | O=C(CCCc1ccccc1)Nc1cccc([N+](=O)[O-])c1 |  | active: 12.6 µM
14 | CCOC(=O)c1cccc(C(=O)Nc2nc3ccc(OC)cc3s2)n1 |  | inconclusive: 1.26 µM [activator, full curve, poor fit]
15 | Cc1ccc2oc(-c3ccccc3)c(C(=O)O)c(=O)c2c1 |  | inconclusive: 3.16 µM [activator, partial curve, poor fit]
16 | Cc1ccc(C(=O)COC(=O)c2ccc(O)cc2)cc1 |  | inconclusive: 12.6 µM [activator, partial curve, poor fit]
17 | CC(=O)c1sc(NC(=O)c2ccc(C)cc2)nc1C |  | inconclusive: 1.41 µM [activator, full curve, poor fit]
18 | O=[N+]([O-])c1ccc(N/N=C/c2cccs2)nc1 |  | active: 3.98 µM
19 | COC(=O)c1cn[nH]c1NC(=S)Nc1ccccc1C |  | inconclusive: 12.6 µM [activator, single point]
20 | O=C(O)c1cccc(Nc2c([N+](=O)[O-])c(=O)oc3ccccc23)c1 |  | inconclusive: 12.6 µM [activator, partial curve, poor fit]
21 | COC(=O)c1ccc2nc(-c3ccc(F)cc3)c(Cc3ccc(OC)cc3C)n2c1 | inactive: 16.2% | 
22 | CC1(C)Cc2c(c(N3CCOCC3)nc3sc4c(=O)[nH]cnc4c23)CS1 | inactive: -29.9% | 
23 | Fc1cccc(F)c1-c1nc(-c2ccncc2)no1 |  | active: 8.91 µM
24 | Cc1cc2cc3c(N)[nH]nc3nc2cc1C |  | inconclusive: 14.1 µM [activator, single point]
25 | Cn1cnc2cc(NCc3ccc(Cl)cc3)ccc21 |  | active: 5.01 µM

Row | SMILES | activation | Potency
26 | Cc1ccccc1NC(=O)CCc1c(C)nn(-c2ccc(N3CCCCC3)nn2)c1C |  | inconclusive: 35.5 µM [activator, single point]
27 | O=C(CSc1nnc(-c2ccco2)n1Cc1ccccc1)OC1CCCCC1 |  | inconclusive: 17.8 µM [activator, partial curve, poor fit]
28 | N#CCCCc1cn(-c2nc3ccccc3s2)nn1 |  | active: 10 µM
29 | CC(/C=N/NC(=O)c1nnn(-c2nonc2N)c1C(C)C)=C\c1ccccc1 |  | inconclusive: 1.26 µM [activator, full curve, poor fit]
30 | CCN1CCN(c2cc(C)c3cc(NC(=O)c4cc(OC)cc(OC)c4)ccc3n2)CC1 |  | active: 6.31 µM
31 | O=S(Cc1cc(Sc2ccccc2)nc(-c2ccccc2)n1)c1ccccc1 (centres undefined) | inactive: -19.7% | 
32 | Cc1cccc(OCCNc2ccc(C(F)(F)F)cc2[N+](=O)[O-])c1 |  | active: 3.16 µM
33 | N#CC(C#N)=Cc1ccc(NC(=O)c2ccc(Br)cc2)cc1 |  | inconclusive: 12.6 µM [activator, partial curve, poor fit]
34 | O=C1CC(c2cc(-c3ccccc3)no2)C1 |  | inconclusive: 11.2 µM [activator, partial curve, poor fit]
35 | Cc1ccccc1NC(=O)Nc1ccc2c(c1)OCO2 |  | active: 5.62 µM
36 | COc1cc2c(cc1NC(=O)CSc1nccn1C)oc1ccccc12 |  | inconclusive: 14.1 µM [activator, single point]
37 | COCC(C)NC(=O)CCc1nnc(C2(c3ccc(Cl)cc3)CCC2)o1 (centres undefined) |  | inconclusive: 35.5 µM [activator, single point]
38 | Cn1ccnc1SCC(=O)Nc1ccc2c(c1)OCCO2 |  | inconclusive: 2.51 µM [activator, partial curve, poor fit]
39 | Cn1c(CNc2ccc(O)cc2)nc2ccccc21 |  | inconclusive: 11.2 µM [activator, partial curve, poor fit]
40 | CC(C)c1ccc(C(=O)N/N=C/c2cccc(Cl)c2Cl)cc1 |  | inconclusive: 12.6 µM [activator, partial curve, poor fit]
41 | CCCc1cc(=O)oc2c(C)c3occ(C)c3cc12 | inactive: 2.45% | 
42 | O=[N+]([O-])c1cccc(/C=N/Nc2ncc(Br)cn2)c1 |  | active: 4.47 µM
43 | COc1ccc(-c2ccc(NC(=O)c3ccco3)cc2)nn1 | inconclusive: -37.8% [activator] | 
44 | O=C(NCCC1=CCCCC1)Nc1ccc2nsnc2c1 |  | inconclusive: 3.98 µM [activator, full curve, poor fit]
45 | CC1(C)Cc2nc3sc(C(=O)NCCCO)c(N)c3cc2CO1 |  | inconclusive: 35.5 µM [activator, single point]
46 | CN(C(=O)CSc1nnc(-c2ccco2)o1)C1CCCCC1 |  | inconclusive: 11.2 µM [activator, partial curve, poor fit]
47 | O=C(NCCSCc1ccco1)Nc1cccc(Cl)c1 |  | inconclusive: 20 µM [activator, single point]
48 | O=C(c1cnn(-c2nc3ccccc3s2)c1)c1ccccc1O |  | inconclusive: 2.51 µM [activator, partial curve, poor fit]
49 | O=[N+]([O-])c1ccc(CN2CCN(c3ccc([N+](=O)[O-])cc3)CC2)cc1 | inactive: -56.6% | 
50 | CCCSc1nsc(NC(=O)CC)n1 |  | inconclusive: 2.24 µM [activator, full curve, poor fit]

Row | SMILES | activation | Potency
51 | COc1ccc(C2NCCc3c2[nH]c2ccccc32)cc1COc1ccc(F)cc1 (centres undefined) | inactive: -85.9% | 
52 | C=CCNc1nc(Cl)nc(Nc2ccccc2)n1 |  | inconclusive: 35.5 µM [activator, single point]
53 | Cc1ccc(Oc2cnc3ccccc3n2)cc1 |  | inconclusive: 12.6 µM [activator, partial curve, poor fit]
54 | O=C(Cc1cccc(NC(=O)C2CCN(C(=O)C3CCCCC3)CC2)c1)Nc1cccc(C(=O)N2CCOCC2)c1 | inactive: 15.6% | 
55 | Cc1csc(NC(=O)Cc2c(F)cccc2Cl)n1 |  | active: 4.47 µM
56 | Cc1cc(C(=O)Nc2ccc(OCc3ccccc3)cc2)c(C)o1 |  | inconclusive: 15.8 µM [activator, partial curve, poor fit]
57 | O=C(/C=C/c1cccs1)Nc1cccnc1 |  | active: 11.2 µM
58 | COc1ccc(NC(=O)n2ncc3cc(Cl)ccc32)cc1OC |  | inconclusive: 15.8 µM [activator, partial curve, poor fit]
59 | COC(=O)c1ccc(COC(=O)CNC(=O)c2ccc(-c3ccccc3)cc2)cc1 |  | inconclusive: 14.1 µM [activator, partial curve, poor fit]
60 | Nc1c(-c2ccc3c(c2)OCCO3)oc2ccccc2c1=O |  | active: 2.51 µM
61 | COc1ccccc1OCC(=O)Nc1ccc(-c2nnc(-c3ccco3)o2)cc1 |  | inconclusive: 1 µM [activator, full curve, poor fit]
62 | O=C(COc1ccccc1)Nc1nnc(C23CC4CC(CC(C4)C2)C3)s1 |  | inconclusive: 2.51 µM [activator, partial curve, poor fit]
63 | COc1cccc(NC(=O)Nc2ccc3c(c2)CCC3)c1 |  | inconclusive: 6.31 µM [activator, partial curve, poor fit]
64 | CN(Cc1ccccc1)C(=O)c1[nH]cnc1C(=O)NCc1ccc(CNC(=O)OC(C)(C)C)cc1 | inactive: -23.9% | 
65 | COc1ccc(NC(=O)c2ccc(COc3ccc(C)cc3)o2)cc1 |  | inconclusive: 0.562 µM [activator, full curve, poor fit]
66 | Cc1ccc2nc(SCC(=O)N3CCCC3)[nH]c2c1 |  | inconclusive: 1.26 µM [activator, partial curve, poor fit]
67 | CC(=O)Nc1nnc(SCc2ccccc2F)s1 |  | inconclusive: 17.8 µM [activator, single point]
68 | COc1ccc(OC)c(C2C3=C(COC3=O)Nc3cc4c(cc32)OCO4)c1 (centres undefined) | inconclusive: -84.5% [activator] | 
69 | CCCCNc1nc(N)nc(-c2cc(Cl)ccc2O)n1 |  | inconclusive: 2 µM [activator, partial curve, poor fit]
70 | CCOC(=O)c1cnc(-n2nc(C)cc2C)nc1NC | inactive: 38.9% | 
71 | COc1cc(/C=N/NS(=O)(=O)c2ccc3ccccc3c2)ccc1OCc1ccc(C(=O)O)cc1 | inconclusive: -77.1% [activator] | 
72 | COc1ccc(NC(=O)Nc2ccccc2OC)cc1 |  | active: 14.1 µM
73 | O=c1oc(CCCO)cc2ccc(C#Cc3cccnc3)cc12 |  | inconclusive: 31.6 µM [activator, single point]
74 | COc1ccccc1OCCCn1c(=O)sc2ccccc21 |  | inconclusive: 14.1 µM [activator, single point]
